Experimental data taken from US20100184190A1, “Influencing viral lipid constituents” (priority 2006, published 2010).

System: A/Sydney virus envelope lipids
Experiment: FTIR analysis of treated virion membranes

Substance | change of membrane lipid order / melting groups (FTIR)
cyclodextrin | significant increases in ordered high melting membrane lipid groups
sphingomyelinase | significant increases in ordered high melting membrane lipid groups
